Where “and” joins values, the source holds several entries; their conditions need not be identical. Identical values can stand only once. Over roughly 5,300 compounds, “PER2::LUC luminescence relative to vehicle control” has its median near 0.96; the highest 2% begin near 1.3. The list shows a part of the results.
Test system: mPer2Luc MEF
Experiment: PER2::LUC luminescence relative to vehicle control (fold of vehicle); higher = higher PER2::LUC reporter signal
Details: 10 µM
Procedure, shortened: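 Compounds from commercial libraries were added at 10 μM to 384-well plates seeded 48 h earlier with ~3000 mPer2Luc mouse embryonic fibroblasts per well. The cells were kept in DMEM with 10% FBS at 37 °C and 5% CO2. Luminescence was read with ONE-Glo 24 h and 30 h after treatment, then an alamarBlue viability assay was run. Values are PER2::LUC luminescence relative to vehicle control, as fold change.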

SMILES | PER2::LUC luminescence (time after treatment 24 h) | PER2::LUC luminescence (time after treatment 30 h)
CC(C)ON([C@@H](C(=O)NO)C(C)C)S(=O)(=O)c1ccc(-c2ccccc2)cc1 | 1.04 | 0.961
C[C@H](CCC(=O)NCCC[N+](C)(C)CCCS(=O)(=O)[O-])[C@H]1CC[C@H]2[C@@H]3[C@H](O)C[C@@H]4C[C@H](O)CC[C@]4(C)[C@H]3C[C@H](O)[C@]12C | 1.06 | 0.883
COc1ccc2c(=O)c(-c3ccc(O)cc3)coc2c1 | 1.39 | 1.62
C[C@H](Oc1ccc(S(C)(=O)=O)cc1C(=O)N1CCN(c2ncc(C(F)(F)F)cc2F)CC1)C(F)(F)F | 0.848 | 0.812
NC[C@H]1O[C@H](O[C@H]2[C@H](O)[C@@H](O[C@H]3O[C@H](CO)[C@@H](O)[C@H](N)[C@H]3O)[C@H](N)C[C@@H]2N)[C@H](O)[C@@H](O)[C@@H]1O | 0.835 | 0.97
COC(=O)C1=C(C)NC(C)=C([N+](=O)[O-])C1c1ccccc1C(F)(F)F (racemic) | 1.15 | 1.01
O=C(/C=C/c1ccc(O)c(O)c1)c1ccc(O)cc1O | 1.04 | 1.13
CC[C@H]1OC(=O)C[C@@H](O)[C@H](C)[C@@H](O[C@@H]2O[C@H](C)[C@@H](O[C@H]3C[C@@](C)(O)[C@@H](O)[C@H](C)O3)[C@H](N(C)C)[C@H]2O)[C@@H](CC=O)C[C@@H](C)C(=O)/C=C/C(C)=C/[C@@H]1CO[C@@H]1O[C@H](C)[C@@H](O)[C@@H](OC)[C@H]1OC | 0.95 and 1.18 | 1.17 and 1.33
C[C@]12C[C@H](O)[C@H]3[C@@H](CCC4=CC(=O)CC[C@@]43C)[C@@H]1CC[C@@H]2C(=O)CO | 1.1 | 0.939
Cc1ccc(NC(=O)c2cccc(N(C)C)c2)cc1NC(=O)c1ccc(O)cc1 | 1.1 | 1.56
O=C1NCCc2[nH]c(-c3ccncc3)cc21 | 0.478 | 0.615
COC(=O)C1=C(C)NC(C)=C(C(=O)OC2CCCN(Cc3ccccc3)C2)C1c1cccc([N+](=O)[O-])c1 (stereo not drawn) | 1.14 | 1.13
COC(=O)CC1C(C)(C)C(OC(C)=O)[C@@H]2[C@@H](OC(C)=O)[C@]34O[C@@]2(O)[C@]1(C)C3CC[C@]1(C)C4=CC(=O)O[C@H]1c1ccoc1 (stereo partly drawn) | 0.924 | 0.919
CCCCOc1ccc(CC/C=C2\SC(=O)N(CCN)C2=O)cc1 | 0.952 | 1.05
CCNC(=O)CCC/C=C\C[C@@H]1[C@@H](/C=C/[C@@H](O)CCc2ccccc2)[C@H](O)C[C@@H]1O | 0.997 | 1.05
c1ccc2c3c([nH]c2c1)[C@H]1[C@@H]2CC[C@@H]([C@@H]4CCCN[C@@H]42)N1CC3 | 1.23 | 1
O=c1sn(-c2cccc3ccccc23)c(=O)n1Cc1ccccc1 | 1.11 | 1.13
Nc1c2c(nc3ccccc13)CCCC2 | 0.921 and 0.49 | 0.916 and 0.915
CCCCC(CC)COC(=O)C(C#N)=C(c1ccccc1)c1ccccc1 (stereo not drawn) | 1.01 and 1.15 | 1.08 and 1.14
NC[C@H]1CC[C@H](C(=O)Oc2ccc(CCC(=O)O)cc2)CC1 | 0.828 | 0.901

SMILES | PER2::LUC luminescence (time after treatment 24 h) | PER2::LUC luminescence (time after treatment 30 h)
Cc1noc(-c2ccc(-c3ccc(CC(=O)O)cc3)cc2)c1NC(=O)O[C@H](C)c1ccccc1 | 1.09 | 1.1
O=c1cc(-c2ccccc2)oc2cc(O)cc(O)c12 | 1.55 and 1.53 | 2.06 and 1.73
O=C(O)[C@@H]1CSCN1 | 1.09 | 0.907
C=C[C@@]1(C)CC(=O)[C@]2(O)[C@@]3(C)[C@@H](O)CCC(C)(C)[C@@H]3[C@H](O)[C@H](OC(C)=O)[C@@]2(C)O1 | 0.796 and 0.475 | 0.695 and 0.73
CN(Cc1cnc2nc(N)nc(N)c2n1)c1ccc(C(=O)NC(CCC(=O)O)C(=O)O)cc1 (racemic) | 0.976 | 0.744
O=C(CCCCCN1C(=O)c2cccc3cccc(c23)C1=O)NO | 0.328 | 0.286
Cc1cc(OCCCS(C)(=O)=O)cc(C)c1-c1cccc(COc2ccc3c(c2)OC[C@H]3CC(=O)O)c1 | 1.26 | 1.21
CCN(CC)C(=S)SSC(=S)N(CC)CC | 0.533 | 0.829
C/C(=C(\CCOP(=O)(O)O)SC(=O)c1ccccc1)N(C=O)Cc1cnc(C)nc1N | 0.956 | 0.785
Nc1ccc2cn[nH]c2c1 | 1 | 1
COc1cc2/c(=N/c3ccc(Br)cc3F)nc[nH]c2cc1OCC1CCN(C)CC1 | 0.542 | 0.571
OC1c2ccccc2N=C2CCCN21 (stereo not drawn) | 0.854 | 0.868
COc1cc2c3cc1Oc1c(OC)c(OC)cc4c1[C@@H](Cc1ccc(OC(=O)c5ccc([N+](=O)[O-])cc5)c(c1)Oc1ccc(cc1)C[C@@H]3N(C)CC2)N(C)CC4 | 0.754 | 0.76
C[C@H](N)[C@H](O)c1cccc(O)c1 | 1.03 | 0.965
COc1ccc(-c2nc(-c3ccc(-c4cccc(Cl)c4)o3)[nH]c2-c2ccc(OC)cc2)cc1 | 1.2 | 1.08
CC1(C)S[C@@H]2[C@H](NC(=O)C(C(=O)O)c3ccccc3)C(=O)N2[C@H]1C(=O)O (stereo partly drawn) | 1.05 | 1.03
CCN(CC)CCOC(=O)C(Cc1cccc2ccccc12)CC1CCCO1 (stereo not drawn) | 1.09 | 0.939
CC(C)NCC(O)COc1ccc(COCCOC(C)C)cc1 (racemic) | 0.958 | 0.87
CC(C)(C)C(=O)C(Oc1ccc(Cl)cc1)n1ccnc1 (stereo not drawn) | 1.07 | 0.832

Source: the supplement of paper PMC9334596
